{"source": "patent US20090291088A1", "about": "“THERAPEUTIC COMBINATIONS OF ANTI-IGF-1R ANTIBODIES AND OTHER COMPOUNDS” (Biogen Idec MA Inc., priority 2008, published 2009)", "molecules": {"B1": {"name": "M14-G11: anti-IGF1-R antibody, competitive blocker of IGF-1 and IGF-2 (antibody, V domains shown)", "VH": "EVQLLESGGGLVQPGGSLRLSCAASGFTFSNYPMYWVRQAPGKGLEWVSRISSSGGRTVYADSVKGRFTISRDNSKNTLYLQMNSLRAEDTAVYYCARDRWSRSAAEYGLGGYWGQGTLVTVSS", "VL": "DIQMTQSPDSLAVSLGERATINCKSSQSVLYSSNNKNYLAWYQQKPGQPPKLLIYLASTRESGVPDRFSGSGSGTDFTLTISSLQAEDVAVYYCQQYYSTWTFGQGTKVEIK", "modifications": "Antibody variable heavy chain sequence; Antibody variable light chain sequence"}}, "target": "T1, human IGF-1R(1-902)-His10 (Homo sapiens, UniProt P08069)", "T1 construct": "human IGF-1R(1-902)-His10 (hIGF-1R-His10 (R&D systems)); purchased R&D systems 305-GR-050", "test": "SPR, receptor ectodomain injected over immobilized antibodies: hIGF-1R-His10", "assay_type": "binding", "conditions": "full-length fully human antibodies; even at the lowest concentration", "procedure": "SPR analyses were performed using a Biacore3000. The instrument was set to 25° C. and assays performed with running buffer HBS-EP pH 7.2 purchased from Biacore (Biacore, Cat. No. BR-1001-88). The fully human antibodies, M13-C06, M14-C03, and M14-G11 were immobilized to ˜10,000 RU on Biacore CM5 Research Grade Sensor Chip surfaces using the standard NHS/EDC-amine reactive chemistry according to protocols supplied by Biacore. For immobilization, the antibodies were diluted to 40 μg/mL in a 10 mM Acetate pH 4.0 buffer. To investigate the relative kinetics of association and dissociation of the full-length ectodomains of human IGF-1R(1-902)-His10 (hIGF-1R-His10 (R&D systems)) and human INSR(28-956)-His10 (INSR (R&D systems)) to each of the human antibodies, increasing concentrations of hIGF-1R-His10 or INSR were injected over the sensorchip surfaces. The hIGF-1R-His10 concentration series ranged from 1.0 nM to 250 nM while the INSR concentrations ranged from 1.0 nM to 2 μM. All antibody surfaces were reliably regenerated with 100 mM Glycine, pH 2.0. […] Flow rates were 20 μl/min. (“His10” denotes a 10-residue histidine tag on the C-terminus of the constructs.)", "data": [{"molecule": "B1", "values": [{"measurement": "binding of hIGF-1R-His10 to immobilized antibody surface", "result": "demonstrated binding"}]}]}
